Sequences with one replicate were seen in a single cluster, so their values are uncertain.
Tested on: ATP
Experiment: switch fluorescence ratio, 500 uM ATP over buffer (Cy3 cluster intensity, sum of 5 cycles each) (fold (ratio)); higher = stronger signal-on switching upon ATP binding; sequences stand for … in TCGTCGGCAGCGTCAGATGTGTATAAGAGACAGTTTTTTTTTTTTTTTTTTTTTTTTT…TC
Conditions: aptamer strand: ATP DNA aptamer (quencher-CACCTGGGGGAGTATTGCGGAGGAAGG + anchor), 100 nM annealed; ATP concentration: 500 uM; one replicate
How it was run: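 Five buffer/ATP imaging cycles were run on Cy3-labelled switching-strand clusters on a modified Illumina MiSeq flow-cell, with NaOH stripping and re-annealing between cycles. In each cycle, clusters annealed to 100 nM quencher-labelled ATP aptamer were imaged in selection buffer, then after 15 min with 500 uM ATP at 22 °C. Per cluster, the fluorescence ratio is summed target-cycle over summed buffer-cycle Cy3 intensity, averaged per switch-domain sequence. Only clusters within 100-1000 RFU were kept.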
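Further: ATP exposure 15 min at 22 °C before imaging.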

| Sequence | switch fluorescence ratio |
| --- | --- |
| TAGAGACTGC | 0.892 |
| GAGGTGTCTC | 0.992 |
| ATATAGTAGG | 1.02 |
| GGATTAAACA | 1.03 |
| TGGTATGGGA | 0.954 |
| ATGCGTTTTT | 0.996 |
| TCGCACTTGT | 1.32 |
| TATACCAGGT | 1.28 |
| TTTTGGAGT | 1.01 |
| TAACACTGT | 1 |
| TCATTGCGCC | 1.05 |
| TACTTATAGA | 1.04 |
| AAATATCTAA | 1.01 |
| CCTTTAAGGT | 1.01 |
| AGTCCGTGCA | 1.02 |
| CATAGTGACG | 1.06 |
| AACCTTGAGG | 0.986 |
| TTGATCAACA | 0.989 |
| AACAAATTAG | 1.02 |
| ACTCATAAGC | 1.02 |
| GCAAGGAGCT | 1.05 |
| CCCTGGTCG | 1.02 |
| GTTGAAGGTG | 1.46 |

| Sequence | switch fluorescence ratio |
| --- | --- |
| TCGAACGGCC | 1.07 |
| CCCTTTCTAT | 1.01 |
| GGGGGATTG | 0.995 |
| GTCATCCTGT | 0.983 |
| TATGCTGGAC | 1.01 |
| TGGCTAATTG | 0.986 |
| TCGGCGCTAT | 2.06 |
| GAGGTATTCA | 1.02 |
| CATTTAAGTT | 0.998 |
| AATTATGATT | 1.05 |
| TAGCTAGTG | 0.983 |
| TGTCTGCGGG | 1.04 |
| GCCCCCTGCC | 1.22 |
| ATGCACTCGT | 0.987 |
| ACGCTCCTGT | 1.03 |
| GAGTTGATG | 0.997 |
| GATGTGCTGC | 1.01 |
| GTGTTAATGC | 1.1 |
| TTACTTACGG | 1.59 |
| ACTCCGTGGT | 4.86 |
| ATGTCGGGAA | 0.977 |
| ACGACATGCA | 1.14 |
| CGTCGATATG | 0.989 |

| Sequence | switch fluorescence ratio |
| --- | --- |
| CCTGACCTCT | 1.08 |
| TAGGCTGACG | 0.924 |
| TTACTGTAGA | 1 |
| TACTTTTATG | 1.02 |
| ACGAAAATGT | 1.15 |
| TGCGTCGAGT | 1 |
| GGTGCCGACG | 1.02 |
| ATCCATGTTG | 1.02 |
| CCCGAACCGT | 1.02 |
| TATTCGAGTT | 0.98 |
| AGCCGGGCAC | 1.03 |
| CTATCGCTGT | 1.15 |
| TTGATTGACC | 1.05 |
| AACAACTGTT | 0.84 |
| GCTAAATGTG | 0.975 |
| CACAAGGCCC | 0.964 |
| TTCGGAGGAC | 1.07 |
| ATTTTTTGCA | 0.994 |
| TATGCTCTG | 0.997 |
| TGCCACACGG | 1.03 |
| TCAGGGGAT | 1.43 |
| ACTATGACGG | 1.03 |
| ATCCAGTAGG | 1.03 |

| Sequence | switch fluorescence ratio |
| --- | --- |
| ACAGGGGA | 1.89 |
| CATGGCCGGA | 0.977 |
| CGGAGTAATA | 4.82 |
| CCAGTCTTAG | 1 |
| TCCCCACGTT | 1.07 |
| ATGTAAAGCC | 0.987 |
| AGACAGTGGT | 1 |
| TTAGACCCGG | 0.981 |
| TGGGGAATCA | 1.06 |
| GGACTTCGG | 1.01 |
| GGGCCAGTCG | 1.22 |
| GCTCGCTGGG | 0.999 |
| ATGTATATGA | 0.997 |
| CGTGCGCGG | 1 |
| TATAATGCT | 0.997 |
| TTCAACCCAG | 1.06 |
| GACGGGGGTC | 1.02 |
| GCGTGGCGTA | 0.992 |
| CCTACTGTGG | 1.02 |
| GGACTCTGGT | 0.995 |
| GTTCTGTGGG | 0.939 |
| TCAGGCGATT | 1.33 |
| ACGTTTTGC | 1 |

| Sequence | switch fluorescence ratio |
| --- | --- |
| CGGGTCGTGT | 0.968 |
| TCACGGCGAT | 1.2 |
| GGGTGCGGG | 0.989 |
| AAACTCATCA | 0.969 |
| ACTCGGTAGG | 0.973 |
| GTCTTTAATC | 0.95 |
| ACCAACAGCG | 1.05 |
| GAAGGCGGGC | 0.943 |
| TGGTAGCCTA | 1.04 |
| AAGCCAGATA | 0.969 |
| CCTAAGCAGT | 4.19 |
| TGCGCAGAAG | 0.971 |
| CCTCTAGGCA | 1.96 |
| CGAGAGGTTC | 1 |
| TTTGTCCCGC | 1.06 |
| TTCGGAAAAG | 1.01 |
| TATCAGGTGA | 1.42 |
| TTGATTCCCT | 1.03 |
| TTAGTAGAAT | 0.983 |
| CGCTCCTATG | 0.982 |
| CCGTTTTCGA | 0.973 |
| GTATCAGCGA | 1.02 |
| GAGGACTATA | 1.03 |

| Sequence | switch fluorescence ratio |
| --- | --- |
| TCCGTTGACT | 1.08 |
| GGGTGCTGAT | 1.02 |
| TTCCTCCTA | 1.86 |
| GGGAGCATAG | 1.09 |
| GATTATTGCG | 0.994 |
| TCCGCAGGTT | 1.22 |
| GGTTAGAAAC | 0.992 |
| ACCTTGCTTG | 1.07 |
| TGCTGTGGCA | 1.01 |
| ATATGGGAAC | 0.987 |
| TGAAGAGCAA | 1.76 |
| GCGGTACAGT | 1.03 |
| GTCCGATCCT | 1.06 |
| AAGATATTCG | 0.974 |
| ATGTACGAAG | 1.01 |
| AGAGGATAGG | 0.983 |
| ACATAATTCT | 1.03 |
| TTAGAGTCC | 1.04 |
| CGCTTCAGCG | 0.999 |
| AAAGGGAATT | 0.921 |
| GATCCGCGTG | 1.01 |
| CCGTAAGTGG | 1.1 |
| CTCATTTAAG | 0.96 |

| Sequence | switch fluorescence ratio |
| --- | --- |
| TATGGATAGA | 1.03 |
| CGCTCAGCAG | 1.44 |
| CTGAGCCTA | 1.05 |
| CCCTTCAGCC | 1.42 |
| ATTTGGGA | 1.02 |
| CGCTGTATA | 1.01 |
| ACTGTGTACG | 1.05 |
| GCTTGGGTG | 1.12 |
| TCTTTGGC | 1.02 |
| TGTGCACTAC | 1.74 |
| CCACCGGACA | 1.4 |
| GTAGATGGTA | 0.983 |
| CATAGCGACC | 1.38 |
| TGGGGATGCC | 1.02 |
| GAGAGCGATA | 1.3 |
| ATTTAGTCAA | 1.04 |
| CGGTGATCAT | 0.966 |
| GAGTCCGTTG | 1.09 |
| CTTAGAAAGT | 1.04 |
| ATAATAATCT | 1.01 |

Source: the supplement of paper PMC10126150
